In the data set the test system is ATP. Put plainly: switch fluorescence ratio, 500 uM ATP over buffer (Cy3 cluster intensity, sum of 5 cycles each) (fold (ratio)); higher = stronger signal-on switching upon ATP binding; sequences stand for … in TCGTCGGCAGCGTCAGATGTGTATAAGAGACAGTTTTTTTTTTTTTTTTTTTTTTTTT…TC. As to conditions: aptamer strand: ATP DNA aptamer (quencher-CACCTGGGGGAGTATTGCGGAGGAAGG + anchor), 100 nM annealed; ATP concentration: 500 uM; one replicate. In outline:
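After annealing to 100 nM quencher-labelled ATP aptamer, Cy3-labelled switching-strand clusters on a modified Illumina MiSeq flow-cell were imaged in selection buffer. A second image followed after 15 min with 500 uM ATP at 22 °C, and five such buffer/ATP cycles were done, each separated by NaOH stripping and re-annealing. The fluorescence ratio, averaged per switch-domain sequence, is summed target-cycle over summed buffer-cycle Cy3 intensity per cluster, with clusters outside 100-1000 RFU excluded.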

Sequences with one replicate were seen in a single cluster, so their values are uncertain.
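Also: ATP exposure 15 min at 22 °C before imaging.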

On to CGCTTGTATG, for which the switch fluorescence ratio came out at 0.98.
On to CTCGTGATGG, for which the switch fluorescence ratio is 1.02.
The same measure for AAATGGAGAG: 1.01.
Take TAAGAAACGT: the switch fluorescence ratio was determined as 1.01.
The same measure for CTTATTGAAA: 1.14; for GATGGAGTGG: 0.971; for CGTACGTTGG: 1.02.
As to TGAAGATGGT, the switch fluorescence ratio amounted to 1.01.
Consider ATGCGCCAAT, for which the switch fluorescence ratio worked out at 1.2.
Consider ATGCGTTGTT, for which the switch fluorescence ratio was determined as 1.01.
For TGTTCTGTTG the value was 1.03; for TGAATTCACG, 1.04.
For the sequence GTAGTCAGCA, the switch fluorescence ratio was 1.03.
For CATATGATGT the value was 1.05; for TTTGTCGG, 0.979.
Consider GGACCAAGGA, for which the switch fluorescence ratio was 1.04.
The same measure for AGAAGAGGGA: 0.999; for GTGTAGGC: 1.02.
In the case of TTAAGGATTG, the switch fluorescence ratio was 1.02.
For TTGACAGGCG the value was 1.08; for ATCCCATTTG, 0.953.
As to GATCAGGGTT, the switch fluorescence ratio is 0.937.
The same measure for TGCCTGGTGG: 1; for ATACGGGTGG: 1.09.
With TAGTCACAGC, the switch fluorescence ratio worked out at 1.02.
Regarding CGAAACAGCG, the switch fluorescence ratio was determined as 0.988.
On to AGGGGATATG, for which the switch fluorescence ratio stood at 0.966.
Regarding ATAAGAGATG, the switch fluorescence ratio was determined as 0.989.
The same measure for TTCGTGACGC: 0.976.
For ACCTAGTAAT the value was 1.06.
CACCTATCCG: the switch fluorescence ratio was found to be 0.985.
For the sequence GCTCCGGGCT, the switch fluorescence ratio was determined as 1.
As to TTAATACTAT, the switch fluorescence ratio came out at 0.988.
With GGAGCGCCA, the switch fluorescence ratio is 0.991.
The same measure for GGCCGGCACA: 0.986; for TAGCTGATCA: 0.988; for AGTTAAGTAC: 1.47.
The same measure for ATGTCCGCTT: 1.16; for CGTGCATTCA: 0.969.
For CTGCATCATT the value was 1.09; for GATTCTATTC, 1.04; for GCTTGAACAA, 0.993.
On to AAGAGGCACA, for which the switch fluorescence ratio is 0.98.
For AGGAAACGA the value was 1.02.
For CAAAGGTATT the value was 0.984; for GAGATGGTC, 0.973; for AAGTATTAAT, 0.965.
The same measure for CGTTATCTAT: 1.01; for GCGCCATGGT: 1.06; for ACATTTTGCC: 1.05.
As to CAGTAGTAAT, the switch fluorescence ratio worked out at 2.28.
For the sequence TGAGCCAGGG, the switch fluorescence ratio is 0.981.
For AATGCAGGGT the value was 1.02; for TTAGGTATGT, 1.01.
For GTGTGTCTTT the value was 0.947; for GCGCGGTTCA, 1.01.
The same measure for AATGCGGACT: 1.02; for GGCGTAACCA: 0.981.
For TTGCACCTGA, the switch fluorescence ratio worked out at 1.05.
As to GCACTGAAAT, the switch fluorescence ratio is 1.01.
For TGTGGCCGCG, the switch fluorescence ratio was found to be 1.02.
The same measure for TATTTCTTCC: 1.75; for TTTGGGCGTG: 0.99; for ATTGACGTCC: 0.98.
For GACCTTGTAG the value was 0.954.
The same measure for CCATGGTTG: 1.04; for TTGCGAGTCA: 0.985.
With CAATGTTGGG, the switch fluorescence ratio came out at 1.06.
The same measure for TAATCATGGA: 0.948; for TTATAGAAA: 1.02; for CGAAACATCT: 1.02.
For GATCCGGGAA the value was 1.05.
For CATTTCTTAA the value was 0.984; for ACATAGCCA, 1.05; for AGTTGATGGC, 0.969.
For the sequence GGACCGGGCT, the switch fluorescence ratio came to 0.991.
For TTGCGGTTGC the value was 1.16.
The same measure for TATGGGAGAA: 0.976; for TCGTTAAACG: 1.03; for GTGTATACTC: 1.05.
The same measure for ATGGATTCGC: 1.04; for CCAAGTTCAT: 0.999; for GTTAATTGTT: 0.945.
Regarding GGCGACTAG, the switch fluorescence ratio is 0.973.
For TCCTATCGGT, the switch fluorescence ratio came to 1.1.
The same measure for GTCTGCTGTA: 1.03.
The same measure for CATCACTAGC: 1.04; for GTATACCGGG: 0.974; for AGAAGAGGCA: 0.974.
For ATTCTATCAT the value was 0.98; for AGGACTGCGT, 0.973.
As to CATCATAAGA, the switch fluorescence ratio came to 1.01.
On to GGACATCAGG, for which the switch fluorescence ratio stood at 1.
With CAGAGAGGCA, the switch fluorescence ratio is 0.96.
As for CGGCCGGGTA, the switch fluorescence ratio stood at 0.954.
The same measure for TCGCCGAGAA: 1.07; for GGGATTAGAG: 1.03; for CCGGTGGCGG: 1.04.
The same measure for AAGTTGGCTA: 1.04; for ATAAGACCCT: 1.05; for GCGCTGTTAC: 3.98.
For CTAATGTCCC the value was 0.973.
Regarding TAATTCATCC, the switch fluorescence ratio amounted to 1.03.
The same measure for TTAATTTTGC: 1.05.
For CAAAGCATTG the value was 1.03; for TCTTAACCC, 1.04; for CGTTGAAGAA, 1.03.
For GAGGTATACG the value was 1.02; for TGGGGTAATT, 1.
Turning to AGAATCCTTA, the switch fluorescence ratio turned out to be 0.995.
The same measure for CTTTTGACGG: 1; for GCGTTATAAT: 0.999; for ATTCCTCCGG: 5.48.
As for CGTATAGGGT, the switch fluorescence ratio was found to be 0.978.
On to GCTCGACTAC, for which the switch fluorescence ratio came to 1.3.
TGGGCATTG: the switch fluorescence ratio was 0.991.
The same measure for ACTTAAATCT: 1.41; for ATGCGTCCTG: 1.01.
As to CCGCGCAGCT, the switch fluorescence ratio amounted to 1.05.
As for GGGCTTTCGA, the switch fluorescence ratio is 1.01.

The values are drawn from the supplement of paper PMC10126150.
